Laboratory results reported in the supplement of paper PMC11876631.
± gives the standard deviation of the averaged measurements. Laboratory Escherichia coli strains with one amino-acid change in an essential protein, pooled on minimal glucose agar with carbenicillin or gentamicin at twice the control MIC (plus kanamycin and chloramphenicol for the plasmids), 48 h. Fold change of barcode share against drug-free plates; higher = less susceptible. Active = above 20 in both replicates (the paper's putatively resistant). '<' = one read or none on drug, '>' = one read or none on a drug-free plate. Shares are relative, so most strains fall below 1 when a few take over. Listed are strains with at least 15 reads on both drug-free plates, and hits; most hits rest on fewer reference reads. Replicate rank correlation about 0.5. Edits are read from barcodes.

B1: trpE; numbered along this chain (parent)
chain: MQTQKPTLELLTCEGAYRDNPTALFHQLCGDRPATLLLESADIDSKDDLKSLLLVDSALRITALGDTVTIQALSGNGEALLALLDNALPAGVESEQSPNCRVLRFPPVSPLLDEDARLCSLSVFDAFRLLQNLLNVPKEEREAMFFGGLFSYDLVAGFEDLPQLSAENNCPDFCFYLAETLMVIDHQKKSTRIQASLFAPNEEEKQRLTARLNELRQQLTEAAPPLPVVSVPHMRCECNQSDEEFGGVVRLLQKAIRAGEIFQVVPSRRFSLPCPSPLAAYYVLKKSNPSPYMFFMQDNDFTLFGASPESSLKYDATSRQIEIYPIAGTRPRGRRADGSLDRDLDSRIELEMRTDHKELSEHLMLVDLARNDLARICTPGSRYVADLTKVDRYSYVMHLVSRVVGELRHDLDALHAYRACMNMGTLSGAPKVRAMQLIAEAEGRRRGSYGGAVGYFTAHGDLDTCIVIRSALVENGIATVQAGAGVVLDSVPQSEADETRNKARAVLRAIATAHHAQETF
B2: ppa; numbered along this chain (parent)
chain: MSLLNVPAGKDLPEDIYVVIEIPANADPIKYEIDKESGALFVDRFMSTAMFYPCNYGYINHTLSLDGDPVDVLVPTPYPLQPGSVIRCRPVGVLKMTDEAGEDAKLVAVPHSKLSKEYDHIKDVNDLPELLKAQIAHFFEHYKDLEKGKWVKVEGWENAEAAKAEIVASFERAKNK
B3: ftsL; numbered along this chain (parent)
chain: MISRVTEALSKVKGSMGSHERHALPGVIGDDLLRFGKLPLCLFICIILTAVTVVTTAHHTRLLTAQREQLVLERDALDIEWRNLILEENALGDHSRVERIATEKLQMQHVDPSQENIVVQK

Variants of: B1
Experiment: barcode share on antibiotic plates over drug-free plates; higher = less susceptible
Conditions: with Escherichia coli (laboratory strain); antibiotic: carbenicillin; 2× MIC (3.1 µg/mL)
Procedure: (§1)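 A pool of E. coli strains, each edited to carry one amino-acid change in an essential protein, was grown for 48 h on minimal glucose agar with or without antibiotic; strain barcodes were sequenced; mean of two replicates.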

Row | Variant | fold change of barcode share
1 | F304Q | 0.426 ± 0.063
2 | F304A | 0.296 ± 0.13
3 | F124W | 0.371 ± 0.14
4 | F124P | 1.06 ± 0.85
5 | F124A | 0.498 ± 0.091
6 | F124Q | 0.312 ± 0.03
7 | V155A | 0.336 ± 0.058
8 | V155P | 0.567 ± 0.025
9 | V155W | 0.425 ± 0.19
10 | V155Q | 0.47 ± 0.22
11 | V155D | 0.479 ± 0.35
12 | F25W | 0.552 ± 0.11
13 | F25P | 0.441 ± 0.097
14 | F25A | 0.275 ± 0.049
15 | F25Q | 0.395 ± 0.073
16 | F25D | 0.318 ± 0.14
17 | M421A | 0.563 ± 0.11
18 | M421P | 0.568 ± 0.14
19 | M421D | 0.347 ± 0.056
20 | I466P | 3.05 ± 2.9
21 | I466A | 0.862 ± 0.00047
22 | I466Q | 0.979 ± 0.3

Same assay, conditions: with Escherichia coli (laboratory strain); antibiotic: gentamicin; 2× MIC (MIC 0.45 µg/mL)

Row | Variant | fold change of barcode share
23 | F304A | < 0.01
24 | F124W | < 0.0131
25 | F124P | < 0.013
26 | F124A | < 0.0123
27 | F124Q | < 0.0128
28 | V155A | 0.0175 ± 0.015
29 | V155P | 0.0129 ± 0.01
30 | V155W | < 0.011
31 | V155Q | 0.971 ± 0.84
32 | V155D | 0.0155 ± 0.011
33 | F25W | 0.0349 ± 0.038
34 | F25P | 0.017 ± 0.0094
35 | F25A | 0.00887 ± 0.0085
36 | F25Q | < 0.00583
37 | F25D | 0.0204 ± 0.013
38 | M421A | 0.0244 ± 0.022
39 | M421P | < 0.0147
40 | I466A | 0.0338 ± 0.011

Variants of: B2
Experiment: as above
Conditions: with Escherichia coli (laboratory strain); antibiotic: carbenicillin; 2× MIC (3.1 µg/mL)
Procedure: as §1

Row | Variant | fold change of barcode share
41 | L73Q | 0.317 ± 0.085
42 | L73A | 0.321 ± 0.0098
43 | L73P | 0.426 ± 0.14
44 | L73W | 0.241 ± 0.069
45 | V19Q | 0.199 ± 0.16
46 | V19W | 0.237 ± 0.07
47 | V19A | 0.237 ± 0.065
48 | L94W | 0.374 ± 0.015
49 | L94Q | 0.331 ± 0.051
50 | L94A | 0.209 ± 0.0035
51 | L94P | 0.208 ± 0.073
52 | V72W | 0.329 ± 0.012
53 | V72Q | 0.353 ± 0.12
54 | V72D | 0.267 ± 0.1
55 | V72P | 0.445 ± 0.034
56 | V72A | 0.26 ± 0.13
57 | I20A | 1.442 ± 0.0087
58 | V70P | 0.319 ± 0.031
59 | V70A | 0.271 ± 0.034
60 | V70Q | 0.245 ± 0.042
61 | V70D | 0.398 ± 0.21
62 | I22A | 0.482 ± 0.17
63 | I22Q | 1.06 ± 0.62
64 | V91A | 0.271 ± 0.033

Same assay, conditions: with Escherichia coli (laboratory strain); antibiotic: gentamicin; 2× MIC (MIC 0.45 µg/mL)

Row | Variant | fold change of barcode share
65 | L73Q | < 0.00415
66 | L73A | 0.00554 ± 0.0016
67 | L73P | 0.00709 ± 0.0052
68 | L73W | 0.145 ± 0.2
69 | V19W | < 0.00515
70 | V19A | 0.0329 ± 0.033
71 | L94W | 0.00526 ± 0.002
72 | L94Q | 0.00677 ± 0.002
73 | L94A | < 0.00332
74 | L94P | < 0.00329
75 | V72W | 0.0177 ± 0.017
76 | V72Q | < 0.0102
77 | V72D | 0.0097 ± 0.0092
78 | V72P | < 0.0138
79 | V72A | 0.0064 ± 0.0046
80 | I20A | 0.00621 ± 0.0033
81 | V70P | 0.0167 ± 0.019
82 | V70A | 0.00603 ± 0.0067
83 | V70Q | 0.00728 ± 0.0021
84 | I22A | 0.154 ± 0.21
85 | I22Q | 0.0127 ± 0.0045
86 | V91A | 0.00423 ± 0.0015

Variants of: B3
Experiment: as above
Conditions: with Escherichia coli (laboratory strain); antibiotic: carbenicillin; 2× MIC (3.1 µg/mL)
Procedure: as §1

Row | Variant | fold change of barcode share
87 | F43Q | 0.324 ± 0.11
88 | F43P | 0.136 ± 0.035
89 | F43A | 0.309 ± 0.0034
90 | F43W | 0.216 ± 0.074
91 | F43D | 0.273 ± 0.11
92 | L48W | 0.419 ± 0.14
93 | L48P | 0.307 ± 0.17
94 | L48D | 0.34 ± 0.051
95 | L48A | 0.316 ± 0.047
96 | L48Q | 0.184 ± 0.062
97 | I44W | 0.255 ± 0.0036
98 | I44Q | 0.325 ± 0.079

Same assay, conditions: with Escherichia coli (laboratory strain); antibiotic: gentamicin; 2× MIC (MIC 0.45 µg/mL)

Row | Variant | fold change of barcode share
99 | F43Q | 0.0282 ± 0.024
100 | F43P | < 0.00822
101 | F43A | < 0.00645
102 | F43W | 0.021 ± 0.02
103 | F43D | < 0.00472
104 | L48W | < 0.00401
105 | L48P | 0.00752 ± 0.0027
106 | L48D | < 0.00474
107 | L48A | < 0.00301
108 | L48Q | 0.0128 ± 0.0041
109 | I44W | 0.294 ± 0.41
110 | I44Q | < 0.00654
